The supplement of paper PMC4604168 (melanoma cell lines)
This is one part of the list. Single values are uncertain, as repeats are few or missing.

How the values were obtained:
Test in all cases: cell count relative to DMSO control; melanoma cells; higher = more viable cells
Conditions in all cases: library dose: standard library concentration; 72 h
G361 = system: G361
IPC-298 = system: IPC-298
IST-MEL1 = system: IST-MEL1
LB2518-MEL = system: LB2518-MEL
LOXIMVI = system: LOXIMVI
MEL-HO = system: MEL-HO
MZ2-MEL = system: MZ2-MEL
MeWo = system: MeWo
RPMI7951 = system: RPMI7951
RVH-421 = system: RVH-421
SkMel28 = system: SkMel28
SkMel2 = system: SkMel2
SkMel30 = system: SkMel30
SkMel5 = system: SkMel5
UACC257 = system: UACC257
UACC62 = system: UACC62
WM115 = system: WM115
WM1716 = system: WM1716
WM3526 = system: WM3526
WM1745 = system: WM1745
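Further: cells treated in 1,536-well plates, then fixed and DAPI-stained, with nuclei counted from automated high-throughput microscope images.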

Question: What does the source list for NC1(c2ccc(-c3nc4ccn5c(=O)[nH]nc5c4cc3-c3ccccc3)cc2)CCC1 + O=C(Oc1ccc([N+](=O)[O-])cc1)N1CCC(C(O)(c2ccc3c(c2)OCO3)c2ccc3c(c2)OCO3)CC1 [JZL184] (first compound 2 µM, partner dose 5 µM)?
Answer: cell count (G361): 92%; cell count (IPC-298): 121%; cell count (IST-MEL1): 93.7%; cell count (LB2518-MEL): 116%; cell count (LOXIMVI): 91.2%; cell count (MEL-HO): 82.2%; cell count (MZ2-MEL): 108%; cell count (MeWo): 91.7%; cell count (RPMI7951): 81.4%; cell count (RVH-421): 85.3%; cell count (SkMel28): 78.1%; cell count (SkMel2): 76.2%; cell count (SkMel30): 103%; cell count (SkMel5): 75.3%; cell count (UACC257): 81.7%; cell count (UACC62): 77.2%; cell count (WM115): 66.5%; cell count (WM1716): 82.3%; cell count (WM3526): 75.5%

Question: How did the cell count (G361) turn out when CS(=O)(=O)CCNCc1ccc(-c2ccc3ncnc(Nc4ccc(OCc5cccc(F)c5)c(Cl)c4)c3c2)o1 [lapatinib] + O=C(Oc1ccc([N+](=O)[O-])cc1)N1CCC(C(O)(c2ccc3c(c2)OCO3)c2ccc3c(c2)OCO3)CC1 [JZL184] (first compound 4 µM, partner dose 5 µM) was run?
Answer: 49.7%

Question: What about the cell count (IPC-298) of the same molecule?
Answer: 83.7%

Question: What about the cell count (IST-MEL1) of the same molecule?
Answer: 87.1%

Question: What about the cell count (LB2518-MEL) of the same molecule?
Answer: 122%

Question: What about the cell count (LOXIMVI) of the same molecule?
Answer: 86.5%

Question: And the cell count (MEL-HO)?
Answer: 76.3%

Question: What about the cell count (MZ2-MEL) of the same molecule?
Answer: 64.1%

Question: What about the cell count (MeWo) of the same molecule?
Answer: 66.2%

Question: What about the cell count (RPMI7951) of the same molecule?
Answer: 40.9%

Question: What about the cell count (RVH-421) of the same molecule?
Answer: 80.8%

Question: What about the cell count (SkMel28) of the same molecule?
Answer: 64.1%

Question: What about the cell count (SkMel2) of the same molecule?
Answer: 81.1%

Question: What about the cell count (SkMel30) of the same molecule?
Answer: 88.8%

Question: And the cell count (SkMel5)?
Answer: 68.1%

Question: And the cell count (UACC257)?
Answer: 95.4%

Question: What about the cell count (UACC62) of the same molecule?
Answer: 41.5%

Question: What about the cell count (WM115) of the same molecule?
Answer: 101%

Question: And the cell count (WM1716)?
Answer: 61.6%

Question: And the cell count (WM3526)?
Answer: 73.6%

Question: For CC(=O)c1c(C)c2cnc(Nc3ccc(N4CCNCC4)cn3)nc2n(C2CCCC2)c1=O [palbociclib] + O=C(Oc1ccc([N+](=O)[O-])cc1)N1CCC(C(O)(c2ccc3c(c2)OCO3)c2ccc3c(c2)OCO3)CC1 [JZL184] (first compound 0.2 µM, partner dose 5 µM), which cell count (G361) is on record?
Answer: 78.6%

Question: What about the cell count (IPC-298) of the same molecule?
Answer: 79%

Question: And the cell count (IST-MEL1)?
Answer: 72.8%

Question: And the cell count (LB2518-MEL)?
Answer: 75%

Question: And the cell count (LOXIMVI)?
Answer: 80%

Question: And the cell count (MEL-HO)?
Answer: 79.4%

Question: And the cell count (MZ2-MEL)?
Answer: 68.1%

Question: What about the cell count (MeWo) of the same molecule?
Answer: 63.3%

Question: And the cell count (RPMI7951)?
Answer: 69.7%

Question: What about the cell count (RVH-421) of the same molecule?
Answer: 70.1%

Question: And the cell count (SkMel28)?
Answer: 53.7%

Question: And the cell count (SkMel2)?
Answer: 72.6%

Question: What about the cell count (SkMel30) of the same molecule?
Answer: 76.8%

Question: What about the cell count (SkMel5) of the same molecule?
Answer: 56.1%

Question: What about the cell count (UACC257) of the same molecule?
Answer: 78.4%

Question: And the cell count (UACC62)?
Answer: 49.3%

Question: What about the cell count (WM115) of the same molecule?
Answer: 61.4%

Question: And the cell count (WM1716)?
Answer: 40.5%

Question: And the cell count (WM3526)?
Answer: 51.7%

Question: How did the cell count (G361) turn out when OCc1c[nH]c2ccccc12 [Indole-3-carbinol] + O=C(Oc1ccc([N+](=O)[O-])cc1)N1CCC(C(O)(c2ccc3c(c2)OCO3)c2ccc3c(c2)OCO3)CC1 [JZL184] (first compound 4 µM, partner dose 5 µM) was run?
Answer: 92.7%

Question: And the cell count (IPC-298)?
Answer: 99.9%

Question: What about the cell count (IST-MEL1) of the same molecule?
Answer: 97.6%

Question: What about the cell count (LB2518-MEL) of the same molecule?
Answer: 109%

Question: What about the cell count (LOXIMVI) of the same molecule?
Answer: 89.8%

Question: What about the cell count (MEL-HO) of the same molecule?
Answer: 98.5%

Question: And the cell count (MZ2-MEL)?
Answer: 97.1%

Question: What about the cell count (MeWo) of the same molecule?
Answer: 110%

Question: What about the cell count (RPMI7951) of the same molecule?
Answer: 91.2%

Question: What about the cell count (RVH-421) of the same molecule?
Answer: 97.2%

Question: What about the cell count (SkMel28) of the same molecule?
Answer: 101%

Question: What about the cell count (SkMel2) of the same molecule?
Answer: 100%

Question: And the cell count (SkMel30)?
Answer: 120%

Question: And the cell count (SkMel5)?
Answer: 84.6%

Question: And the cell count (UACC257)?
Answer: 83.4%

Question: And the cell count (UACC62)?
Answer: 78.9%

Question: What about the cell count (WM115) of the same molecule?
Answer: 94.9%

Question: What about the cell count (WM1716) of the same molecule?
Answer: 89.1%

Question: And the cell count (WM3526)?
Answer: 89.6%

Question: What does the source list for COc1cc([C@@H]2c3cc4c(cc3[C@@H](O[C@@H]3O[C@@H]5CO[C@@H](C)O[C@H]5[C@H](O)[C@H]3O)[C@H]3COC(=O)[C@H]23)OCO4)cc(OC)c1O [etoposide] + Cc1cc(SCc2sc(-c3ccc(C(F)(F)F)c(F)c3)nc2C)ccc1OCC(=O)O [GW0742] (first compound 0.1 µM, partner dose 10 µM)?
Answer: cell count (G361): 88.1%; cell count (IPC-298): 83.7%; cell count (IST-MEL1): 95.7%; cell count (LB2518-MEL): 88.2%; cell count (LOXIMVI): 84.8%; cell count (MEL-HO): 96.9%; cell count (MZ2-MEL): 85.2%; cell count (MeWo): 77.1%; cell count (RPMI7951): 89.2%; cell count (RVH-421): 97.5%; cell count (SkMel28): 71.5%; cell count (SkMel2): 60.5%; cell count (SkMel30): 103%; cell count (SkMel5): 89.8%; cell count (UACC257): 83.7%; cell count (UACC62): 64.3%; cell count (WM115): 77%; cell count (WM1716): 60%; cell count (WM3526): 108%

Question: CCN(CC)CCNC(=O)c1c(C)[nH]c(/C=C2\C(=O)Nc3ccc(F)cc32)c1C [sunitinib] + C[As](C)SC[C@H](NC(=O)CC[C@H](N)C(=O)O)C(=O)NCC(=O)O [Darinaparsin] (first compound 2 µM, partner dose 2 µM) was tested. Which cell count (G361) did it give?
Answer: 55.2%

Question: And the cell count (IPC-298)?
Answer: 70.2%

Question: And the cell count (IST-MEL1)?
Answer: 77.3%

Question: What about the cell count (LB2518-MEL) of the same molecule?
Answer: 48.9%

Question: And the cell count (LOXIMVI)?
Answer: 110%

Question: What about the cell count (MEL-HO) of the same molecule?
Answer: 72%

Question: What about the cell count (MZ2-MEL) of the same molecule?
Answer: 78%

Question: And the cell count (MeWo)?
Answer: 42.4%

Question: And the cell count (RPMI7951)?
Answer: 53.1%

Question: What about the cell count (RVH-421) of the same molecule?
Answer: 77.9%

Question: What about the cell count (SkMel28) of the same molecule?
Answer: 43.9%

Question: And the cell count (SkMel2)?
Answer: 59.7%

Question: What about the cell count (SkMel30) of the same molecule?
Answer: 44.8%

Question: What about the cell count (SkMel5) of the same molecule?
Answer: 30.1%

Question: And the cell count (UACC257)?
Answer: 86.2%

Question: And the cell count (UACC62)?
Answer: 45.4%

Question: What about the cell count (WM115) of the same molecule?
Answer: 50%

Question: What about the cell count (WM1716) of the same molecule?
Answer: 85.2%

Question: What about the cell count (WM1745) of the same molecule?
Answer: 40.3%

Question: What about the cell count (WM3526) of the same molecule?
Answer: 42.5%

Question: For Cc1cc(Nc2cc(N3CCN(C)CC3)nc(/C=C/c3ccccc3)n2)n[nH]1 + C/C(O)=C(\C#N)C(=O)Nc1cc(Br)ccc1Br [LFM-A13] (first compound 0.2 µM, partner dose 10 µM), which cell count (G361) is on record?
Answer: 89%

Question: And the cell count (IPC-298)?
Answer: 92.9%

Question: What about the cell count (IST-MEL1) of the same molecule?
Answer: 85%

Question: And the cell count (LB2518-MEL)?
Answer: 82.4%

Question: What about the cell count (LOXIMVI) of the same molecule?
Answer: 98.3%

Question: And the cell count (MEL-HO)?
Answer: 82.2%

Question: And the cell count (MZ2-MEL)?
Answer: 76.7%

Question: And the cell count (MeWo)?
Answer: 73.9%

Question: What about the cell count (RPMI7951) of the same molecule?
Answer: 90.4%

Question: What about the cell count (RVH-421) of the same molecule?
Answer: 92.4%

Question: And the cell count (SkMel28)?
Answer: 72%

Question: What about the cell count (SkMel2) of the same molecule?
Answer: 103%

Question: And the cell count (SkMel30)?
Answer: 82.9%

Question: What about the cell count (SkMel5) of the same molecule?
Answer: 61%

Question: And the cell count (UACC257)?
Answer: 94.5%

Question: And the cell count (UACC62)?
Answer: 70%

Question: And the cell count (WM115)?
Answer: 91.7%

Question: What about the cell count (WM1716) of the same molecule?
Answer: 81.7%

Question: And the cell count (WM3526)?
Answer: 88.3%

Question: What does the source list for Cc1ccc(Nc2nccc(N(C)c3ccc4c(C)n(C)nc4c3)n2)cc1S(N)(=O)=O [Pazopanib] + O=C(Oc1ccc([N+](=O)[O-])cc1)N1CCC(C(O)(c2ccc3c(c2)OCO3)c2ccc3c(c2)OCO3)CC1 [JZL184] (first compound 2 µM, partner dose 5 µM)?
Answer: cell count (G361): 81.7%; cell count (IPC-298): 84.9%; cell count (IST-MEL1): 131%; cell count (LB2518-MEL): 99.1%; cell count (LOXIMVI): 93.3%; cell count (MEL-HO): 104%; cell count (MZ2-MEL): 94.1%; cell count (MeWo): 92.4%; cell count (RPMI7951): 98.8%; cell count (RVH-421): 131%; cell count (SkMel28): 72.8%; cell count (SkMel2): 115%; cell count (SkMel30): 83.1%; cell count (SkMel5): 80.3%; cell count (UACC257): 87%; cell count (UACC62): 94.8%; cell count (WM115): 101%; cell count (WM1716): 97.2%; cell count (WM3526): 83.8%
